Assay results from PubChem BioAssay AID488969 (Vanderbilt High Throughput Screening Facility, 2010).
Over roughly 110,000 compounds, “z-score” has its median near -0.1; the highest 2% begin near 2. The list shows a part of the results. Calls of active or inactive are those of the source.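 How the source made its calls: active means z-score in the third read window above 3 or below -3; inactive means the rest.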

Target: Metabotropic glutamate receptor 8 (Rattus norvegicus) (UniProt P70579)
Assay: rat mGluR8 modulators via GIRK flux, primary screen, cell-based, thallium flux, HTS (AID 488969)
Conditions: HEK293 rat mGluR8, GIRK (G protein-gated inwardly rectifying potassium channel) thallium flux, FluoZin2; at 10 µM; stronger effect = higher value; submaximal glutamate (EC20) added with thallium

Sequence of UniProt P70579 (P70579 whole entry, looked up): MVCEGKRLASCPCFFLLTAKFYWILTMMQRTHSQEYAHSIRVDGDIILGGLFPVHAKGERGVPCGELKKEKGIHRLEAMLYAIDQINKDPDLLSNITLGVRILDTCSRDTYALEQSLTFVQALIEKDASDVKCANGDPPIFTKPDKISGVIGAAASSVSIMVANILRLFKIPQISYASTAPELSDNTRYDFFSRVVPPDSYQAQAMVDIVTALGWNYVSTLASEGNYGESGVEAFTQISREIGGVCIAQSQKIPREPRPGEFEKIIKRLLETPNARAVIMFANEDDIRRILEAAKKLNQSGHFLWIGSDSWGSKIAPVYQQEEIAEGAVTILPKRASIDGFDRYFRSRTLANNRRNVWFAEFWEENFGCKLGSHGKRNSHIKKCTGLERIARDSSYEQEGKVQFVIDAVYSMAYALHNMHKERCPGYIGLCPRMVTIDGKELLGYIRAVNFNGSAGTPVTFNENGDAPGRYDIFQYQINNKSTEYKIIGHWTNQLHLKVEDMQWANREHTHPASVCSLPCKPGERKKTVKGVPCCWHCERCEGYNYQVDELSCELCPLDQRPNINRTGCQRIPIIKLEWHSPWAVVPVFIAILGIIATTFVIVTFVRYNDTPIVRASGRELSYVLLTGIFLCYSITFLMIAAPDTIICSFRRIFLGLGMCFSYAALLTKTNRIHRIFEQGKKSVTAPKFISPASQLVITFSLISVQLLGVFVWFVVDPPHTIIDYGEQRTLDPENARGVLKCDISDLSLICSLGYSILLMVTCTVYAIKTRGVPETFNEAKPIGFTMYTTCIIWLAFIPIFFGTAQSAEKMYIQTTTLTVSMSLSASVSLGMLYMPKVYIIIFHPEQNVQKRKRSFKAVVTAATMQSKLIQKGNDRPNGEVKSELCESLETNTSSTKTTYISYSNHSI

Structure (SMILES) | z-score
Cc1cc(Nc2ccc3c(c2)OCCO3)n2nc(C)nc2n1 | -0.0724
CCN(CC)S(=O)(=O)c1ccc2c(c1)nc(CCC(=O)Nc1cccc(C(F)(F)F)c1)n2CC | -0.277
CC(=O)N1CCN(S(=O)(=O)c2cccc(C(=O)Nc3nc4c(s3)CCCC4)c2)CC1 | -0.112
Cn1c(N=NC(=O)c2ccccc2)c(O)c2ccccc21 | -0.347
COc1cc(/C=C2\SC(=S)N(N3CCOCC3)C2=O)cc(OC)c1OC | -0.257
CC(C)n1nnnc1SCC(=O)NCc1ccc2c(c1)OCO2 | -0.277
CCC(=O)N1CCc2cc(S(=O)(=O)NC(C(=O)NC(C)c3ccccc3)C(C)C)ccc21 (stereo not given) | -0.383
COc1cccc(NC(=O)c2oc3ccccc3c2NC(=O)c2ccc3c(c2)OCO3)c1 | 0.209
COc1cc(/C=C2/SC(=S)N(C)C2=O)ccc1OC(=O)c1ccco1 | -0.377
c1ccc2c(c1)nnn2Cc1nnc2sc(-c3ccncc3)nn12 | -0.326
COc1ccccc1OC(=O)c1ccc(SC)cc1OC | 0.254
CC1CCN(S(=O)(=O)c2ccc3c(c2)C(=NO)c2cc(S(=O)(=O)N4CCC(C)CC4)ccc2-3)CC1 | 0.115
CCOC(=O)c1cnn(-c2nc(SC)nc3sc4c(c23)CCCC4)c1N | 0.141
O=C1c2ccccc2C(=O)N1CCCc1nc(-c2ccncc2)no1 | -0.0106
Cc1[nH]c2ccccc2c1/C=N/Nc1ccc(F)cc1F | 0.0188
CCS(=O)(=O)N1CCC(c2nc(-c3ccc(C(F)(F)F)cc3)no2)CC1 | -0.221
Cc1cc(Oc2ccccc2)nc(N2CCOCC2)n1 | -0.111
N/C(=N\S(=O)(=O)c1cccs1)c1ccccc1 | 0.185
O=C(O)CSCCC(=O)Nc1ccc(F)cc1 | -0.224
C=CCNC(=O)c1onc(CCl)c1C(=O)OC | -0.228
Cc1[nH]n(-c2ccccc2)c(=S)c1C=Nc1cccc([N+](=O)[O-])c1 | -0.78
O=C(O)c1ccc2c(c1)CC(c1ccccc1)OC2=O (stereo not given) | -0.453
CC(C)OC(=O)c1cn(-c2ccccc2)nc1-c1ccco1 | -0.552
COc1ccc(-n2cnnc2SCC(=O)Nc2cccc(S(=O)(=O)N3CCCCC3)c2)cc1 | -0.523
Cc1cccc(NC(=O)CO/N=C/c2ccc3c(c2)OCO3)c1 | -0.175
Cc1cc(=O)oc2cc(OCC(=O)N3c4ccccc4CC3C)ccc12 (stereo not given) | -0.325
Cc1ccc(-c2cc(C(=O)Nc3cc(C)on3)c3ccccc3n2)cc1 | -0.321

Structure (SMILES) | z-score
O=C(COc1ccccc1)NC(=S)Nc1ccc2c(c1)Cc1ccccc1-2 | active: 6.86
N=C(N)SCc1nc2ccccc2c(=O)n1-c1ccccc1Cl | -0.219
Cc1[nH]n(-c2ncc(-c3ccccc3)s2)c(=O)c1C(c1ccc(Cl)cc1)C(C#N)C#N (stereo not given) | 0.15
COc1ccc(OC)c(Nc2nc(N)nc(CSc3nnc(-c4ccncc4)o3)n2)c1 | -0.218
CCCCN(CCCNC(=O)c1ccc2nc(N3CCOCC3)sc2c1)Cc1ccccc1 | -0.0195
Cc1nc2ccccc2c(=O)n1NC(=O)/C=C/c1ccccc1 | 0.0247
CCn1c(C)[n+](CCCS(=O)(=O)[O-])c2cc(Cl)c(Cl)cc21 | -0.165
CCCNc1nc2c(c(=O)n(C)c(=O)n2C)n1Cc1ccc(F)cc1 | -0.637
O=C(COc1ccc(N2CC(C(=O)O)CC2=O)cc1)Nc1cccc(C(F)(F)F)c1 (stereo not given) | 0.0536
CC(C)(C)C(=O)N(CCN(C(=O)C(C)(C)C)c1ccccc1)c1ccccc1 | -0.275
O=C(CCc1nc(-c2ccccc2)no1)NCCc1ccccc1 | 0.0357
CC(=O)Nc1ccc(S(=O)(=O)NC(CC(=O)NCCc2ccccc2)C(C)C)cc1 (stereo not given) | -0.221
CC(=O)Nc1ccc(S(=O)(=O)N2CCN(CCCOc3ccccc3Cl)CC2)cc1 | -0.242
CN(CC(=O)Nc1nc2ccccc2s1)S(=O)(=O)c1ccc(Br)cc1 | 0.828
COc1ccc(N(CC(=O)N/N=C/c2cc3ccc(OC)cc3nc2Cl)S(=O)(=O)c2ccccc2)cc1 | -0.119
CCC(CC)NC(=O)/C=C/c1ccccc1Cl | -0.178
COc1ccc(C(=O)O/N=C(\N)Cc2ccc(Cl)cc2Cl)cc1OC | -0.448
Cc1[nH][nH]c(=O)c1C(c1ccc(-c2ccc(Cl)c(Cl)c2)o1)c1c(C)[nH][nH]c1=O | -0.342
Cc1ccc2c(c1)nnn2C1CCN(CC(=O)Nc2ccccc2N2CCOCC2)CC1 | -1.3
CSc1nc2ccc3nc(NC(=O)c4ccc(Cl)s4)sc3c2s1 | 0.273
COc1ccc(/C=C/C(=O)NC(=S)NNC(=O)c2cccnc2)cc1OC | -0.273
Cc1ccc(OCC(=O)Nc2nnn(C)n2)c(C)c1 | 0.068
N#Cc1cnc(SCC(=O)NNC(=O)COc2cccc3ccccc23)nc1N | 0.104
CCC(=O)NC(Nc1cccc(C)n1)(C(F)(F)F)C(F)(F)F | 0.107
CCn1c(-c2ccc(F)cc2)n[nH]c1=S | -0.0596
Cc1cccc(-n2nnnc2SCC(=O)c2cc(C)n(Cc3ccco3)c2C)c1 | 0.103
O=C1CC(N2CCC(c3nc4ccccc4s3)CC2)C(=O)N1 (stereo not given) | -0.0191

Structure (SMILES) | z-score
COc1ccc(N2C(C)=CS/C2=C(/C#N)c2nnc(N3CCOCC3)n2-c2ccccc2)cc1 | -0.189
CSC1=NC2C(N1)N(C)C(=O)N2C (stereo not given) | 0.487
COc1ccc(N(C(C)C(=O)NC2CCCCCC2)S(C)(=O)=O)cc1 (stereo not given) | 0.00612
O=C1CC(c2ccc(S(=O)(=O)Nc3cc(C(F)(F)F)cc(C(F)(F)F)c3)cc2)CN1 (stereo not given) | 0.112
Cc1ccc(C(=O)O/N=C(\N)c2ccc(Br)cc2)cc1C | 0.201
COc1cc(-c2cc(C(=O)O)c3c(OC)c(OC)c(OC)cc3n2)ccc1O | 0.239
CCOC(=O)C(=CNCC(=O)OC)C(=O)OCC | 0.0437
Cc1cc(Nc2ncc(Cl)cc2Cl)n(-c2ccccc2C)n1 | -0.174
O=C(c1c[nH]c2ccc(S(=O)(=O)N3CCC4(CC3)OCCO4)cc2c1=O)N1CCOCC1 | -0.224
CCCn1c(C)cc(/C=C(\C#N)C(=O)OCC(=O)NC(=O)NCC)c1C | -0.591
Cc1nc(SCC(=O)Nc2c(C)nn(C)c2C)c2cnn(-c3ccccc3)c2n1 | -0.799
Cc1cc(C(=O)N/N=C2\CCCC(=O)C2)c(C)n1-c1ccccc1 | 0.227
O=C(c1cnn2c(C(F)(F)F)cc(-c3ccccc3)nc12)N1CCCc2ccccc21 | -0.322
COC(=O)c1sc(NC(=O)c2oc3ccccc3c2C)nc1C | 0.295
COC(=O)C(CCSC)NC(=O)CNS(=O)(=O)c1ccc(Br)cc1 (stereo not given) | -0.207
CCCCCCOc1ccc(N2C(=O)CC(N3CCN(C(=O)c4ccco4)CC3)C2=O)cc1 (stereo not given) | 0.102
CC(C)(C)NC(=O)CSc1nc2ccc(NC(=O)CSc3nnnn3Cc3ccccc3)cc2s1 | -0.227
O=C(CSc1ccc(-c2ccco2)nn1)c1cccc([N+](=O)[O-])c1 | -0.24
O=C(CC1SC(=Nc2ccccc2)N(CCc2c[nH]c3ccccc23)C1=O)Nc1ccccc1F (stereo not given) | -0.0173
Cc1ccc(-c2noc(CSc3nnc(-c4ccncc4)n3-c3ccc(F)cc3)n2)cc1 | -0.168
O=C(CSc1nc2ccccc2c(=O)n1-c1cccc(C(F)(F)F)c1)NC1CC1 | -0.265
COC(=O)C1=C(C)Nc2nnnn2C1c1ccco1 (stereo not given) | -0.268
O=C(CCN1C(=O)S/C(=C\c2ccccc2)C1=O)Nc1ccc(S(=O)(=O)Nc2nccs2)cc1 | 0.0301
O=c1c(Cc2ccc(F)cc2)c(O)ccn1C1CCCCC1 | -0.0593
O=C(c1ccc(F)cc1)c1cn[nH]c1-c1ccccc1O | 0.0354
CC(=O)c1ccc(Cc2cnc(N)s2)cc1 | 0.199
O=C(CCOc1ccccc1)NCC(c1ccco1)N1CCCCC1 (stereo not given) | 0.398

Structure (SMILES) | z-score
CCOC(=O)N1CCN(Cc2nc3c(c(=O)n(C)c(=O)n3C)n2CCC(C)C)CC1 | -0.493
COc1cccc(OC(C)c2ccnc3nc(/N=C/N(C)C)nn23)c1 (stereo not given) | 0.0638
COC(=O)CN(C(=S)Nc1ccc(Cl)cc1)C1CC(=O)N(c2ccc(OC)cc2)C1=O (stereo not given) | -0.282
Cc1cc(C)c2[nH]c(=O)c(C(c3nnnn3Cc3ccc4c(c3)OCO4)N3CCCC3)cc2c1 (stereo not given) | -0.213
CC(NC(c1ccccc1)c1ccccc1)C(=O)N1CCCc2ccccc21 (stereo not given) | 0.067
CCCCOC(=O)Cn1c(=N)n(CCN2CCOCC2)c2ccccc21 | 1.91
Cn1nc(-c2ccc(C(=O)N3CCN(c4ccccc4)CC3)cc2)c2ccccc2c1=O | 0.0868
COc1ccccc1-c1nnc(SCC(=O)NC2CCCCC2)o1 | -0.234
O=c1[nH][nH]c(C(F)(F)F)c1C=NCc1ccc(Cl)cc1 | 0.51
COC(=O)C1CCN(C(=O)Cc2ccc(C)cc2)CC1 | 0.0557
Cc1oc(CC(C)C)c(CN)c1C(=O)O | 0.0286
Cc1ccc(NC(=O)Cn2nc([N+](=O)[O-])c(Br)c2C)cc1C | 0.387
O=C(c1cc2c(s1)CCC2)N1C(=O)c2ccccc2S1(=O)=O | 0.704
CCCCN(C(=O)CSc1cc(C)c2ccc(OC)cc2n1)c1c(N)n(Cc2ccccc2)c(=O)[nH]c1=O | 0.118
Cc1cccc2cc(C(c3nnnn3Cc3ccccc3)N3CCCc4ccccc43)c(=O)[nH]c12 (stereo not given) | 0.0552
CCN1CCN(C(=O)C2CCN(Cc3nc(-c4cccc(Cl)c4)oc3C)CC2)CC1 | -0.235
COc1ccc(NC(=O)COc2ccc(CNCCCN3CCOCC3)cc2OC)cc1 | -0.551
O=C(/C=C/c1ccccc1[N+](=O)[O-])NCC1CCCO1 (stereo not given) | -0.326
COC(=O)C1=C(C)NC(=O)C1(Nc1ccc(Cl)cn1)C(F)(F)F (stereo not given) | -0.151
CC1CC(C)CN(CC(=O)Nc2ccc(S(N)(=O)=O)cc2)C1 (stereo not given) | 0.422
COc1cccc(-c2nnc3sc(-c4ccc(C)cc4)nn23)c1 | -0.138
Cc1ccc(C(=O)N2c3ccccc3N(Cc3ccccc3)C(=O)C2(C)C)cc1 | 0.683
CCCc1ccc(OCc2ccc(C(=O)N/N=C/c3cccc([N+](=O)[O-])c3)o2)c(OC)c1 | -0.212
O=C(Nc1nc2ccccc2n1CCOc1ccc(Cl)cc1)c1ccco1 | -0.224
